# The full ranking holds about 33,000 sequences; the median of “E-score (-0.5 to 0.5)” is about -0.056, and the highest 2% start at about 0.38. Some of the results follow.
# Target: Stb4 (UniProt P50104)
# Experiment: PBM E-score (8-mer binding enrichment) (E-score (-0.5 to 0.5)); higher = stronger / more preferred TF binding; most listed sequences are background and not binding sites
# Conditions: protein concentration: 200 nM; construct: GST-DNA-binding domain
# Procedure: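 Universal 'all 10-mer' protein binding microarrays (Agilent AMADID 015681) probed with GST-tagged S. cerevisiae TFs (full-length or DBD) made by in vitro transcription/translation (PURExpress), about 100-200 nM. Bound TF was detected with fluorescent anti-GST. Each ungapped 8-mer (which stands for itself and its reverse complement) is scored by the PBM enrichment score (E-score), a modified Wilcoxon-Mann-Whitney statistic from -0.5 to +0.5, computed with the Universal PBM Analysis Suite. Scale: above 0.35 generally sequence-specific binding.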
row,Sequence,PBM E-score
1,ATGTCGCA,-0.259
2,CGGAACAC,0.367
3,ATACGCGC,0.036
4,AGTCGTTG,-0.128
5,CAGAGGGA,-0.182
6,TAGCGGAA,0.251
7,ACAGCTAG,-0.101
8,ATCCACTG,-0.0434
9,ACCTTGCT,-0.168
10,ATATGGAT,-0.226
11,CGGCACGC,0.247
12,GGGGATCA,-0.134
13,ACTTCGGG,0.407
14,CTGTCTTC,0.00189
15,CAAAGCAC,-0.0496
16,AAAGTCCC,0.184
17,GATAGAGC,-0.0769
18,TGCCAAAA,-0.0796
19,AAAGTTCA,0.093
20,ACTTTACG,-0.0299
21,GTATTAAC,0.0461
22,CGTGGGAA,-0.22
23,AAATTATT,0.134
24,CCCGAATA,0.397
25,AAGTAGAC,-0.038

row,Sequence,PBM E-score
1,GGGCTTGA,-0.364
2,CCAATTGC,-0.203
3,ACACAGGG,-0.0134
4,CATGGCAA,-0.241
5,AACCTGAA,-0.171
6,TGCTGTAA,-0.174
7,TTCAACAA,-0.00037
8,CCAACTAG,-0.222
9,GCCGAACA,0.393
10,AGGCCGAA,0.274
11,GACATTAC,0.134
12,ATGATGAA,0.0986
13,CACATCCC,0.187
14,GGCGATAA,-0.00564
15,CATAGTGG,-0.102
16,AGAAGCAG,-0.297
17,GACGAGGA,-0.242
18,ACAAGGTG,-0.0895
19,CTCTGGTA,-0.36
20,AGCCGTGG,0.189
21,AGATCGTC,-0.252
22,ACCAACTG,-0.143
23,TATCGCGA,0.0412
24,GACTCAAC,-0.0506
25,ATTTTGAA,-0.0335

row,Sequence,PBM E-score
1,AGCAGATA,-0.0258
2,CTTGCATA,-0.146
3,GATACAAC,0.0623
4,ATTTACGG,0.215
5,CCACTAAC,-0.217
6,TGCATGAA,-0.0689
7,CACCGTCG,0.0772
8,ATTTAGCC,0.16
9,CCATTTAC,-0.0395
10,AAAGAGGT,-0.123
11,ACCACTAT,-0.0547
12,ACCCAGCG,-0.0996
13,AAGGGATT,-0.205
14,ACTGAGGA,-0.0849
15,ATATTCTG,-0.0146
16,TCATACAA,0.0319
17,CCAGCTCG,-0.0202
18,CTATTGAA,-0.0769
19,CGGAGGCC,0.233
20,CACTGGCA,-0.23
21,AATACGTC,0.0988
22,CTTACGCA,-0.0829
23,CTAAGGTA,-0.0255
24,ATTAGCGA,-0.0133
25,ATTACATC,0.0659

row,Sequence,PBM E-score
1,ACTTGTCC,0.0306
2,ATTTATGC,-0.126
3,GACAAAAC,-0.0388
4,TTAAGTAA,0.0365
5,CTAAGGAC,-0.171
6,AGTGTATG,0.0323
7,AGGCGTCA,-0.346
8,ACGCTTAG,-0.202
9,CAGGTTCG,0.2
10,AATCGTCT,-0.222
11,AGACTACA,-0.135
12,ATTCCGAG,0.472
13,AAGCATTC,0.0236
14,CGGGGACC,0.189
15,ACTGTACC,0.147
16,GAGAGACA,-0.119
17,CGTAATCC,0.0908
18,AGCCGCAG,0.0821
19,AGATAAGG,-0.0299
20,TAGTGACA,-0.2
21,GGTAGCTA,-0.0552
22,AGGTATAT,-0.222
23,ACAAGCCT,-0.308
24,GTCTGCAA,0.0421
25,AGGGGATC,-0.0701

row,Sequence,PBM E-score
1,AGCGACCC,0.0831
2,ATTGTCAG,-0.151
3,ACATTGAA,-0.0609
4,ATCTAGCC,0.0343
5,CAGACTCG,-0.066
6,ACACGCTC,0.0442
7,GGGGCGCA,-0.23
8,CTTGCCGA,0.396
9,CCGCACCG,0.155
10,ATTAGCTC,-0.113
11,ATAACCTA,-0.0868
12,ACCTCAGC,-0.0537
13,AGGGCATG,-0.259
14,ACCGTGAA,0.00123
15,AGCCTACA,-0.16
16,CACTCGCC,-0.00692
17,GGGCCTGA,-0.175
18,GACGAATA,0.0471
19,CGTACAGA,-0.0914
20,AAGGAATG,0.0209
21,ATCTTCAA,-0.24
22,AATATGAG,-0.119
23,ACAGGTGC,-0.0918
24,ACGTAGTA,-0.0824
25,ACGGGCGA,0.106

row,Sequence,PBM E-score
1,AGTGCCAG,-0.113
2,ACTGATGG,-0.219
3,CCGGTACA,0.272
4,CAACAGCC,0.0759
5,CACGAAGA,-0.255
6,ATGTCATC,-0.14
7,CAGTGTCA,-0.135
8,CCACGCTA,-0.207
9,CTCTACGA,-0.192
10,AGCCTCCG,0.203
11,TACATAGA,-0.174
12,GTCTCACA,0.047
13,AGAGGGGA,-0.0413
14,AACCGGCG,0.253
15,GATTGGAA,-0.0263
16,GATACTAA,0.182
17,AAGTCATA,-0.174
18,ACGCAAGA,-0.204
19,ATGGAAAG,-0.0405
20,GCAACCGC,0.0272
21,ACAGGTTG,-0.21
22,CCGTTTCA,0.126
23,AGTCCTGG,-0.319
24,CGCATCTC,0.0906
25,AGCACTCG,0.124

row,Sequence,PBM E-score
1,AGGAAAGA,-0.174
2,ACCCGTCG,0.17
3,AACTTTGA,-0.166
4,TCCTCGCA,-0.138
5,CAAAGATG,-0.0814
6,CCATCCTC,0.147
7,CGCGGAAA,0.316
8,CAGCGACA,-0.189
9,GAAACACA,0.11
10,GACCCATC,0.0784
11,CATTTCGG,0.336
12,CTGCTGCA,-0.148
13,CGCAGAAC,-0.0819
14,AGTTTGAC,-0.0486
15,ATCAAGAC,-0.0811
16,CCACTTCC,0.127
17,ACGGATAA,0.416
18,ACTCAGTG,-0.208
19,CCTCGTCA,-0.0723
20,CTAGTTGA,-0.136
21,CCCTGTAA,-0.0872
22,CTCACTAC,-0.0955
23,AAAAAGCT,-0.0296
24,AATTAGAG,-0.102
25,CGAGGGCG,0.109

row,Sequence,PBM E-score
1,ACACAGAC,-0.114
2,AGGTTAAA,-0.0548
3,ACCATATC,0.0425
4,ATATATGG,-0.0678
5,AGTCTAAG,0.0423
6,CAGCTTGA,-0.225
7,ATTCTCAA,-0.252
8,GCAGTTCC,0.0961
9,AGTACATA,-0.0517
10,CGCTCCCC,-0.189
11,TCCTCAAA,-0.175
12,TATGCAAA,-0.133
13,GGCCGACC,0.186
14,AATGCATC,-0.132
15,AGAATATA,-0.0714
16,AACGGGCA,-0.064
17,AAATGCTA,0.0636
18,ACGATTCA,-0.053
19,AGGGTAAT,-0.0845
20,ACATGCAC,-0.184
21,GACAGCCC,-0.018
22,CCGTAGGC,0.132
23,GTCACCGA,0.111
24,GGATAGTA,0.231
25,CTGATTAC,0.0295

row,Sequence,PBM E-score
1,TATTAGCA,-0.148
2,CGTTGGTA,0.127
3,CCCAGTTA,-0.0445
4,CACATGTA,-0.209
5,ACCGCCCG,0.254
6,CTGTATTA,-0.108
7,AGTCTCAT,-0.0888
8,AAGTCGGG,0.306
9,GACTTTGA,-0.149
10,CCCAGTGA,-0.33
11,ATAATATC,-0.0702
12,CTATTGGA,-0.072
13,CTAGGGAA,-0.0336
14,CTCGACAC,-0.144
15,AGTGCAAC,0.0517
16,GTGTGGTA,-0.103
17,GTGCTCGA,0.00939
18,AAACGCAA,-0.027
19,GAGCATCC,0.258

# Reference: the supplement of paper PMC3334620
